The source of these data is article PMC6728388.

The chains behind the UniProt entries cited, without tags or fusion partners. Where a name states a change or a piece, a line headed by the entry shows the natural chain unless it says otherwise. A line that says so, or that is headed by a name, gives the form on record, which may keep a tag or linker. Residues count along the entry.
UniProt Q3TN34: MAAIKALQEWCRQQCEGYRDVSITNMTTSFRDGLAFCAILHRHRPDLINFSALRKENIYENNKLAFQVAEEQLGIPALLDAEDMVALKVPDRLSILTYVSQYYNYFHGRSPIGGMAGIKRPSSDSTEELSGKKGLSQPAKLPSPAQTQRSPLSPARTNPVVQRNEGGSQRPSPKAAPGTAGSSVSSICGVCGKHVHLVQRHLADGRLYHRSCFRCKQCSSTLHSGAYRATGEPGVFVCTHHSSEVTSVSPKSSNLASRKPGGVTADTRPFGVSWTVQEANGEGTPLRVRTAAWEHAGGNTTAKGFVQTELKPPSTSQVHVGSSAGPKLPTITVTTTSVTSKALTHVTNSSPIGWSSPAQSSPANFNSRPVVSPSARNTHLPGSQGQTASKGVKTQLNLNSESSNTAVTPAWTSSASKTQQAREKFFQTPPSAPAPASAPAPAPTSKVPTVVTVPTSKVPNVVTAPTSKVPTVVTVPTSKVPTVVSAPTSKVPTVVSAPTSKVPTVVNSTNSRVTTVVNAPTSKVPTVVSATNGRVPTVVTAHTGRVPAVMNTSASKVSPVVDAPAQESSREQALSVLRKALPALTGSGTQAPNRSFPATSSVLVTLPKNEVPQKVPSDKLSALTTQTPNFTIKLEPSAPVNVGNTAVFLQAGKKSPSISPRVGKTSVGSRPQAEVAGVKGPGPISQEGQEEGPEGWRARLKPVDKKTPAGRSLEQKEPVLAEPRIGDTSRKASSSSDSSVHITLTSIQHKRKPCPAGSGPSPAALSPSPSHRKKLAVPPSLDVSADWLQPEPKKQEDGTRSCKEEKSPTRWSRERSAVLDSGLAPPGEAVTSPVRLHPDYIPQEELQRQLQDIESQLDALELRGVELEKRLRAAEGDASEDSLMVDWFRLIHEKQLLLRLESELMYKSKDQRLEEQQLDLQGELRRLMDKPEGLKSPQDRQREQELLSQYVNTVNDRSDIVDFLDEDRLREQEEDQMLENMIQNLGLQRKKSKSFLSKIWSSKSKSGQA
GST-JRAB-CH + LIM: residues 1-260 of Q3TN34
GST-JRAB-C (aa 806–1009): residues 806-1009 of Q3TN34
GFP-JRAB-C (M884K/W887K) (Q3TN34, form named): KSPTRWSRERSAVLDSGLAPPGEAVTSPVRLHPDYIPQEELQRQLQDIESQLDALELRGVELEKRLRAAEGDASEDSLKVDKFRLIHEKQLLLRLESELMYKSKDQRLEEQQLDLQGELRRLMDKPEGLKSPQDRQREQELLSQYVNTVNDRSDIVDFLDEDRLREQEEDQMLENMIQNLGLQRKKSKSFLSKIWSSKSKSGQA
GFP-JRAB-C (Q895K/L898K) (Q3TN34, form named): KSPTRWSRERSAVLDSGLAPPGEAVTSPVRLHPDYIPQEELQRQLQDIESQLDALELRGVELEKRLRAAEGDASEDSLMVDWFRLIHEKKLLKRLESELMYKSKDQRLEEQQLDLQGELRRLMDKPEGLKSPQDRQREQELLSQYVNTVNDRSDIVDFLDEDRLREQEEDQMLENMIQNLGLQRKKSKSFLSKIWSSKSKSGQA
GFP-JRAB-CH + LIM (L197E/V198E/R200E) (Q3TN34, form named): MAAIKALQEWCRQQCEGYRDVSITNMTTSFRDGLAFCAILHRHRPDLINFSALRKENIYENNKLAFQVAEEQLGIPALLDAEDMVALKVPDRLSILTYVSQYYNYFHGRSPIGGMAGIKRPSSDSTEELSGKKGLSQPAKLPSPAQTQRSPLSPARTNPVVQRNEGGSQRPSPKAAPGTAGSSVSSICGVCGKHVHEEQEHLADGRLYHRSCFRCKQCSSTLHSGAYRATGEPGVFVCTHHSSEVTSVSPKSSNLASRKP
GFP-JRAB-CH + LIM (S224E/R228E) (Q3TN34, form named): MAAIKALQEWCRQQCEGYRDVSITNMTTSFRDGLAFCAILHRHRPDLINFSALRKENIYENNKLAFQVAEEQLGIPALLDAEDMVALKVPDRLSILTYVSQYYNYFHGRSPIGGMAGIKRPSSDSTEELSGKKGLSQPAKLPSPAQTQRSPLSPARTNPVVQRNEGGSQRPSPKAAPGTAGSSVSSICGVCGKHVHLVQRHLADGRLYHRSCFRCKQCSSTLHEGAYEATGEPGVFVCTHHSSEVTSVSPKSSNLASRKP
GFP-JRAB-CH + LIMΔZF1 (aa 1–185 + 213–260) (Q3TN34, form named): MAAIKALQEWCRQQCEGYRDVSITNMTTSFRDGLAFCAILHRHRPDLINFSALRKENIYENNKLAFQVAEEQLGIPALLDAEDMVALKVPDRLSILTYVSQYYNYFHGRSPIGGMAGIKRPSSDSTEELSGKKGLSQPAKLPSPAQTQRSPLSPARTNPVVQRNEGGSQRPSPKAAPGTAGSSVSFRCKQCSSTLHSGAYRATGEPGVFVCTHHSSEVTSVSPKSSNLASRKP
GFP-JRAB-CH + LIMΔZF2 (aa 1–213 + 242–260) (Q3TN34, form named): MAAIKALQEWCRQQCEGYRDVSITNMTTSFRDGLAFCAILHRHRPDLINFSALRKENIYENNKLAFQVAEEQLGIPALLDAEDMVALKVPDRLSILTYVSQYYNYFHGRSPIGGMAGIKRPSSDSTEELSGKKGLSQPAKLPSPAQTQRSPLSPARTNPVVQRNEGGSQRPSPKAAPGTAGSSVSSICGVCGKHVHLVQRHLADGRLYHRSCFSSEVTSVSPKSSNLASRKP
GFP-JRABΔCC (Q3TN34, form named): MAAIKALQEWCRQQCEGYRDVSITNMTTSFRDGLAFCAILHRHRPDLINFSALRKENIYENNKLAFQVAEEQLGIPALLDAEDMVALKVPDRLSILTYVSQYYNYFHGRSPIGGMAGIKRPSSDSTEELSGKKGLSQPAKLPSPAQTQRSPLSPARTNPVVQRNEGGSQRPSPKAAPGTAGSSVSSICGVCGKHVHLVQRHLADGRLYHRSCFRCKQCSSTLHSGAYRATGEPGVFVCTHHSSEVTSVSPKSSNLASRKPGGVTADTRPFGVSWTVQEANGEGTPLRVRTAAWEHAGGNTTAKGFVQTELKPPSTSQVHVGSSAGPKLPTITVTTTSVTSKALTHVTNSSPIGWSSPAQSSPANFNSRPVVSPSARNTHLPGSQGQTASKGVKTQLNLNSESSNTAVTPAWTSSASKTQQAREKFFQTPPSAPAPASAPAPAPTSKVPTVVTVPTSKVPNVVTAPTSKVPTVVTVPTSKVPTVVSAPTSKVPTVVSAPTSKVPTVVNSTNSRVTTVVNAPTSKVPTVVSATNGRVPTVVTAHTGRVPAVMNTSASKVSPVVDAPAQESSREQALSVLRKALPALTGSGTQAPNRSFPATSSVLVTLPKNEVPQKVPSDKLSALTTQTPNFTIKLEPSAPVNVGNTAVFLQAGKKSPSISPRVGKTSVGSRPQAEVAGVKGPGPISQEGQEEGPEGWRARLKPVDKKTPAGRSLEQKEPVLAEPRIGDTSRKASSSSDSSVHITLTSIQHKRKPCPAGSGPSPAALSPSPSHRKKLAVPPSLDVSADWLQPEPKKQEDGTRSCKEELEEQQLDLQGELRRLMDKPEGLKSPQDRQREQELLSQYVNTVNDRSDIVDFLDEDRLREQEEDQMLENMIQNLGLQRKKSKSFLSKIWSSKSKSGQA
GFP-JRABΔZF1 (Q3TN34, form named): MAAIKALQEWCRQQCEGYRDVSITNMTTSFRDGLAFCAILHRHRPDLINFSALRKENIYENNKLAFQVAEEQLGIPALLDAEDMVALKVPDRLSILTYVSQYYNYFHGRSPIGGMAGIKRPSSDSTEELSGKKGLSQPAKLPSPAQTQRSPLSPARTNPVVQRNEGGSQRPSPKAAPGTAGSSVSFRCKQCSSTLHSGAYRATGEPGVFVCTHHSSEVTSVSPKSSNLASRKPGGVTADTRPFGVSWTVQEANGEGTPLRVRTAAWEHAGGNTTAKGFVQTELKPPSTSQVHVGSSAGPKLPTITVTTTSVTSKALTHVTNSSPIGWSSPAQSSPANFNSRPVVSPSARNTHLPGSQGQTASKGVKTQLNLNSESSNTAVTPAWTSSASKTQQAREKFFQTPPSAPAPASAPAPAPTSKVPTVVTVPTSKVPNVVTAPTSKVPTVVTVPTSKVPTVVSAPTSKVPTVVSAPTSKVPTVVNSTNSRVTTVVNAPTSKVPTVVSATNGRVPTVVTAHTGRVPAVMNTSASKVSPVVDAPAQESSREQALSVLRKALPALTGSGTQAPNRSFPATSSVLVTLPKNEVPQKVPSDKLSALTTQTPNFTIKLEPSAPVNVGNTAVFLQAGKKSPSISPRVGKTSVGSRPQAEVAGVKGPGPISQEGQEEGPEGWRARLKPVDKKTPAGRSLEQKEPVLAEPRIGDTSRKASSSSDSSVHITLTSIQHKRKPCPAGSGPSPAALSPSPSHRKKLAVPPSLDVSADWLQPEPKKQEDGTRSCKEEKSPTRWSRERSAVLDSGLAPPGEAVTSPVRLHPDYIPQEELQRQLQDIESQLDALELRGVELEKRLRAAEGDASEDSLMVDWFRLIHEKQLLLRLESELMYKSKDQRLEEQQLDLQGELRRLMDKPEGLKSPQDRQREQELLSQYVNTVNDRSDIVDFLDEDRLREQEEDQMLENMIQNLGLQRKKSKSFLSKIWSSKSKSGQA

No constants are given. Whether binding was seen depends on the method and setting. Binding seen in cells or lysates may run through a third protein. Some entries that bind do so weakly or less than the wild type. For part of these data: Tags and fused reporters may be left off the sequences shown.

Experiment [1] deals with GST-JRAB-CH + LIM (mouse) (UniProt Q3TN34). As to the kind of experiment: pull-down; purified GST-JRAB-C or GST-JRAB-CH + LIM on glutathione-Sepharose beads, incubated with lysates of HEK293 cells expressing GFP-tagged JRAB variants; western blot with anti-GFP; only the target purified.
Experiment [2] has as its target T1, HA-Rab13DA (Q67L) (mouse) (UniProt Q9DD03).
T1 sequence: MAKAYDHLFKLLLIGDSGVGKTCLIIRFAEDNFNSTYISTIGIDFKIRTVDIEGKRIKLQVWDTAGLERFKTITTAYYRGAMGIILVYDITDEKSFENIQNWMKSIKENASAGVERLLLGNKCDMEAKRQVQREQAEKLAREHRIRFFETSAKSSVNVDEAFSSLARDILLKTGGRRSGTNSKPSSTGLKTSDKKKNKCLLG
The experiment is described as follows: co-IP; HEK293 cells co-expressing a GFP-tagged JRAB variant and HA-Rab13DA or HA-filaminA; lysate precipitated with anti-HA antibody (12CA5) on Protein G-Sepharose; western blot with anti-GFP and anti-HA.

Experiment [3] addresses GST-JRAB-C (aa 806–1009) (mouse) (UniProt Q3TN34). As to the kind of experiment: pull-down; purified GST-JRAB-C or GST-JRAB-CH + LIM on glutathione-Sepharose beads, incubated with lysates of HEK293 cells expressing GFP-tagged JRAB variants; western blot with anti-GFP; only the target purified.
Experiment [4] deals with HA-filaminA (UniProt P21333). As to the kind of experiment: co-IP; HEK293 cells co-expressing a GFP-tagged JRAB variant and HA-Rab13DA or HA-filaminA; lysate precipitated with anti-HA antibody (12CA5) on Protein G-Sepharose; western blot with anti-GFP and anti-HA.

Consider “GFP-JRAB WT (from UniProt Q3TN34 1-1009)”, for which, in experiment [1], the binding result is “no binding”.
Turning to “GFP-JRAB-C (M884K/W887K) (from UniProt Q3TN34 806-1009) (domain or fragment)”, the values for the binding entry in experiment [2] and in experiment [1] were “binds” and “no binding”, respectively.
As for “GFP-JRAB-C (Q895K/L898K) (from UniProt Q3TN34 806-1009) (domain or fragment)”, the binding result in experiment [2] was “binds”; in experiment [1], “no binding”.
The matching figures for “GFP-JRAB-C WT (from UniProt Q3TN34 806-1009) (domain or fragment)”: “binds” and “binds”.
As for “GFP-JRAB-CH (aa 1–138) (from UniProt Q3TN34 1-138) (domain or fragment)”, the binding result in experiment [3] is “no binding”.
For “GFP-JRAB-CH + LIM (L197E/V198E/R200E) (from UniProt Q3TN34 1-260) (domain or fragment)”, the binding entry is “binds” in experiment [4] and “no binding” in experiment [3].
Take “GFP-JRAB-CH + LIM (S224E/R228E) (from UniProt Q3TN34 1-260) (domain or fragment)”: in experiment [3], the binding entry was “binds”.
With “GFP-JRAB-CH + LIM (aa 1–260) (from UniProt Q3TN34 1-260) (domain or fragment)”, the binding result in experiment [4] and in experiment [3] was “binds” throughout.
For the substance “GFP-JRAB-CH + LIMΔZF1 (aa 1–185 + 213–260) (from UniProt Q3TN34 1-260) (domain or fragment)”, in experiment [3], the binding entry is “no binding”.
Same read-out and setting: to “GFP-JRAB-CH + LIMΔZF2 (aa 1–213 + 242–260) (from UniProt Q3TN34 1-260) (domain or fragment)” belongs “binds”; to “GFP-JRAB-LIM (aa 139–260) (from UniProt Q3TN34 139-260) (domain or fragment)”, “binds”.
On to “GFP-JRABΔCC (from UniProt Q3TN34 1-1009)”, for which the binding result in experiment [4] is reported as “binds”.
Take “GFP-JRABΔCT (from UniProt Q3TN34 1-912) (domain or fragment)”: the binding entry in experiment [4] and in experiment [1] was “no binding” throughout.
Consider “GFP-JRABΔZF1 (from UniProt Q3TN34 1-1009)”, for which the binding result in experiment [4] and in experiment [1] was “binds” throughout.
